In all, about 150,000 compounds went through this assay and about 540 (0.36%) showed an effect of 50% or more. The list shows a part of the results.
test system: Plasmodium falciparum; assay: Primary screen in NF54 nanoGlo assay, in single point, at 2uM, 72h; a lower Z score goes with more inhibition; format: functional, Erythrocyte; conditions: timepoint 72 hour

| Compound | % Inhibition | Z score |
| --- | --- | --- |
| CCCc1nc(Cn2c(C)nc(C#N)c2C#N)cs1 | -10% | 1.18 |
| Cc1ccc(C(=O)N[C@@H](CC(C)C)c2nc3ccccc3n2CC(=O)Nc2ccc3c(c2)OCO3)cc1 | -1% | 0.11 |
| CCc1nnc2ccc(N3CCC[C@H]3C3CCCC3)nn12 | 3% | -0.43 |
| CC1CC(C)CN(C(=O)CCCC(=O)N2CCN(c3ccccn3)CC2)C1 (stereo not given) | -9% | 1.15 |
| CCn1cc(S(=O)(=O)NC(=O)Cc2ccc(F)cc2)cn1 | -8% | 1.12 |
| CC(=O)N1CCN(C(=O)CN2CCCCC[C@H]2c2ccc(C)o2)CC1 | -14% | 1.28 |
| COc1ccccc1-c1n[nH]c(NC(=O)CN2CCNC(=O)C2)c1C | -2% | 0.45 |
| COCC(=O)N(C)c1ccc(F)c(Cl)c1 | -1% | 0.22 |
| COc1cc2c(cc1OC)[C@@H](NC(=O)C(F)(F)F)CNC2=O | 31% | -3.99 |
| Cc1cc(Nc2ccc(F)cc2)nc2nn(Cc3cc(F)cc(F)c3)c(=O)n12 | -29% | 3.12 |
| Cc1cnc(-c2ccccc2)n1CCNC(=O)NC[C@H]1CCCO1 | -8% | 0.93 |
| CC(C)n1ncc2cc(S(=O)(=O)N3Cc4ccccc4[C@@H]3C)ccc21 | 33% | -3.69 |
| Cc1cccc2c(-c3cc(N)nc(N)n3)c[nH]c12 | 85% | -9.19 |
| O=C1c2ccccc2C(=O)N1Cc1ccc2[nH]c3c(c2c1)CCCC3 | -11% | 1.39 |
| c1cnc(-c2csc(NCC3CCC3)n2)cn1 | -12% | 1.05 |
| CC(C)(C)c1ccc2c(c1)CN(C(=O)c1nc(=O)[nH][nH]1)CC2 | -4% | 0.49 |
| CC(C)c1nn(C)c2sc(C(=O)N(C)Cc3cnn(C)c3)cc12 | -6% | 0.75 |
| COCCC1(C(=O)N2CC3CCC2C3)CCC1 (stereo not given) | 7% | -0.98 |
| CCCCNC(=O)C(=O)Nc1ccc(C(C)(C)C)cc1 | -5% | 0.81 |
| C[C@@H](c1nnnn1C)S(=O)(=O)Cc1ccccc1C1CC1 | -15% | 1.84 |
| CCN(CC1CCN(c2ccccn2)CC1)C(=O)Cn1cnnn1 | -1% | 0.2 |
| O=C(NCc1ccccc1)C1CCN(S(=O)(=O)c2ccc3c(c2)CCCN3C(=O)C2CCC2)CC1 | -12% | 2.31 |

| Compound | % Inhibition | Z score |
| --- | --- | --- |
| O=C1NCCCn2cc(nn2)CC2(CCN(Cc3cccc4ncccc34)CC2)C(=O)N[C@H]1Cc1ccccc1 | -23% | 2.93 |
| Cn1nc(C(=O)NCc2cccc(F)c2)cc1C(=O)NCc1cccc(F)c1 | -7% | 0.96 |
| O=C(c1nccc2ccccc12)N1CC(F)(F)C[C@H]1COc1ccncc1 | -6% | 0.97 |
| Cc1ccc(S(N)(=O)=O)c(C(=O)NC[C@](C)(O)c2ccc(C)o2)c1 | -16% | 2.18 |
| O=C(Nc1cccnc1-n1cc(Br)cn1)C1Oc2ccccc2O1 | 9% | -1.48 |
| O=C(Cc1ccsc1)N1CCn2nccc2C1 | -12% | 1.8 |
| Cc1ccc(OCC(=O)NC2CCN(Cc3ccccc3)CC2)cc1 | -8% | 0.81 |
| O=S(=O)(N[C@H]1CCc2[nH]c3ccccc3c2C1)c1ccc(F)cc1 | 0% | -0.04 |
| COc1ccc(F)cc1-c1nccn1Cc1c(C)nn(C(C)C)c1C | 3% | -0.65 |
| NC(=O)[C@@H]1CN(Cc2ccc3c(c2)CCO3)C[C@H]1COc1ccncc1 | 2% | -0.33 |
| CCc1ccc(-c2cn([C@H](c3ccccc3)c3nnc(N)s3)nn2)o1 | -16% | 1.47 |
| CCN(C)S(=O)(=O)N1C[C@H](C(=O)O)[C@@H](C2CC2)C1 | -12% | 2.1 |
| O=C(O)[C@H]1CN(C(=O)Cc2cccc(F)c2)C[C@@H]1C1CC1 | -16% | 3.08 |
| COc1cc(=O)[nH]cc1C(=O)N1CC[C@H](c2ccccc2)[C@H](CO)C1 | -12% | 1.79 |
| CC[C@@H](C(=O)N1CCC(C#N)CC1)N(C)CC | -11% | 1.68 |
| Cc1ncc(C(=O)OCC(F)(F)C(F)F)c(N)n1 | -2% | 0.35 |
| CC1COC(c2ccccc2Cl)CN1C(=O)NCc1cccnc1 (stereo not given) | -1% | 0.19 |
| CO[C@@H](CNS(C)(=O)=O)c1cccc(Cl)c1 | -10% | 1.22 |
| CCCc1nc(C)c(CNCc2nc(C)c(C)n2C)s1 | -8% | 1.52 |
| Cc1nn(-c2ccccc2)c(C)c1C(=O)NC[C@H]1CCS(=O)(=O)C1 | -5% | 0.87 |
| CN(Cc1ccccc1Br)C(=O)CCNC1C2CCOC2C12CCC2 (stereo not given) | -3% | 0.38 |
| COc1ccc(N2C(=O)c3ccccc3N[C@@H]2c2cccn2C)c(OC)c1 | -10% | 1.89 |

| Compound | % Inhibition | Z score |
| --- | --- | --- |
| CCCn1nnnc1CN1CCO[C@H](c2nc(C)n[nH]2)C1 | 0% | 0 |
| Oc1ccc(C2N=C(c3ccccc3)NC(c3ccccc3)=N2)cc1 | -1% | 0.16 |
| Cc1nccn1CCN(C)Cc1ccc(Cl)c(F)c1 | -7% | 1.29 |
| O=C(Cn1cccn1)N1CCCC[C@@H]1CCOc1cccc(CN2CCN(c3cccc(Cl)c3)CC2)c1 | 8% | -1.45 |
| Cc1ncsc1C(=O)O[C@H](c1cccnc1)C(F)(F)F | 0% | -0.01 |
| Cc1csc(CN(C)Cc2nc(C)c(C)n2C)n1 | -20% | 1.84 |
| COC(C)(C)c1noc(-c2cc3cc(O)ccc3nc2C)n1 | -4% | 0.6 |
| O=C(NC1CCCCCC1)[C@@H]1CC(c2ccccc2)=NO1 | -4% | 0.49 |
| CCOc1cc(CNC2CCCC2)cc(Br)c1OCC(=O)Nc1ccccc1OC | -12% | 1.42 |
| COCCn1c(=O)n(Cc2ncccn2)c2cc(C(=O)OC)ccc21 | -3% | 0.55 |
| Cc1nc(NCCCn2cncn2)cc(C(C)C)n1 | 3% | -0.26 |
| Cc1ccc(-c2nc3cnccn3c2Nc2ccc(C)c(Br)c2)o1 | 1% | -0.08 |
| Fc1ccc(-c2cc(-c3ccccc3)nnc2-c2ccccc2)cc1 | -3% | 0.59 |
| FC1(F)C[C@@H](c2nnc(-c3ccncc3)o2)N(CC2CC2)C1 | -2% | 0.41 |
| Cn1c(C(=O)Nc2nc3c(s2)CCC3)cc(Cl)c1Cl | -4% | 0.72 |
| Nc1c(NC(=O)NC2CCCC2)c(-c2ccc(Cl)cc2)nn1-c1ccccc1 | -3% | 0.4 |
| CC1(C(=O)Nc2cc(C3CC3)n[nH]2)CC1F (stereo not given) | -7% | 0.94 |
| COc1ccc(-c2ccc(C(=O)NC3CCN(C4CC4)CC3)c(F)c2)c(F)c1 | 0% | -0.03 |
| CCOc1cccc([C@@H]2CC(c3cccc(OC)c3)=NC3(CCN(CC)CC3)N2)c1O | -12% | 1.39 |
| CCCCc1nc(CN2CC[C@H](Oc3ccccc3)C2)c[nH]1 | 9% | -1.69 |
| Cn1ncc(C2CCC2)c1CNC(=O)OCCF | -1% | 0.19 |
| Cn1cnnc1[C@@H]1CCCN1c1ncc(C(=O)N2CCCCC2)cc1Cl | 3% | -0.32 |

| Compound | % Inhibition | Z score |
| --- | --- | --- |
| COc1ccc(C(=O)N2CCOCC2)cc1S(=O)(=O)N1CCCCCC1 | -14% | 1.29 |
| O=C(Nc1ccccc1Cl)N1CC[C@H](Oc2ncccc2C(=O)N2CCOCC2)C1 | -8% | 1.26 |
| COCc1cc(NCCCn2nc(C)c(Cl)c2C)ncn1 | -6% | 1.07 |
| CN(C(=O)[C@H]1CCCN(C2CCN(Cc3cccnc3)CC2)C1)C1CCCCCC1 | -4% | 0.5 |
| Cc1nn(CC(=O)N2CCOCC2)c(C)c1NC(=O)c1cc2nc(-c3ccccc3)cc(C(F)(F)F)n2n1 | 2% | -0.25 |
| Cc1cc(N[C@H]2CCOC2)c2ncccc2c1 | -12% | 1.25 |
| CCCc1cc(C(=O)N2C[C@H](OC)C[C@@H]2COc2cccnc2)no1 | -4% | 0.84 |
| COC[C@H]1CCCCN1C(=O)c1cc(COc2cccc3cccnc23)on1 | -12% | 1.79 |
| Cc1nc(C(C)C)sc1CNS(=O)(=O)C1CC1 | -5% | 0.52 |
| C[C@H]1CCc2c(cnc3c(C(=O)NC4CCCCC4)cnn23)C1 | 10% | -1.85 |
| CCn1cc(-c2ccc(Cl)cc2)cc1C(=O)NCc1ccncc1 | -2% | 0.34 |
| O=C(CCN1CCCCC1=O)N[C@@H]1CCC[C@H]1OCc1ccccc1 | -1% | 0.18 |
| CCCn1c(C(=O)NCCc2ccccn2)cc2cc(NS(=O)(=O)c3ccc(Cl)cc3)ccc21 | -18% | 2.16 |
| O=C1NCC2(CCN(C(=O)Nc3cnn(Cc4cccc(F)c4)c3)CC2)O1 | 2% | -0.44 |
| CC1(C)CN(c2ccc(C(=O)N3CCCCC3)cn2)C[C@]1(C)O | -4% | 0.78 |
| COc1ccc(-c2cc(C(=O)N[C@H]3CCN(c4ccc(=O)n(C)n4)C3)c(C)n2C)cc1 | 67% | -11.23 |
| CC1CCC(NC(=O)c2cccn2Cc2noc(C3CC3)n2)CC1 (stereo not given) | -10% | 1.5 |
| Cc1cc(Cn2nnnc2C(C)(C)C)on1 | 0% | -0.05 |
| CN(Cc1ncnn1C)S(=O)(=O)c1cccs1 | -6% | 0.71 |

Source: ChEMBL document CHEMBL4888484, “Replenishing the malaria drug discovery pipeline: Screening and hit evaluation of the MMV Hit Generation Library 1 (HGL1) against asexual blood stage Plasmodium falciparum ,using a nano luciferase reporter read-out” (2022)
